Results taken from the supplement of paper PMC9513381.
Recombinant human monoclonal antibodies (heavy:light variable regions). ELISA EC50 on the named antigen, from 10 µg/ml down; IC50 / IC90 against spike pseudovirus on 293T-ACE2 cells, 48 h; lower = stronger. Calls: IC50 above 1,000 ng/ml = non-neutralizing; EC50 above 1,000 ng/ml = non-binder. The source prints 1000 for neutralization that was not reached; it is given as >1000 ng/ml. Only binders of the Wuhan-Hu-1 domain have neutralization values.

B1: B014 (protein)
chain 1: QVQLVESGGGVVQPGKSLRLSCVGSGFTFSTYGMHWVRQAPGKGLEWVALISYDGSDEYYADSVRGRFTMSRDNSKNTLYLQMNSLRVEDTAVYYCAKQISTYYAAGIYYFDYWGQGTLVTVSS
chain 2: DIQMTQSPSSLSASIGDTVTITCQASQDINNCLIWYQQKPGKAPKILIYDASNLEAGVPSRFSGSGSGTDFTFTISSLHREDIATYYCQQCNGLPPTFGGGTKVEI
B2: B016 (protein)
chain 1: EVQLVESGGGLVQPGGSLRLTCAASGITVSSNYMNWVRQAPGKGLEWVSVLYAGGSTFYADSVKGRFTISRDNSNNTLYLQMNSLRAEDTAVYYCARDLVDFGMDVWGQGTTVTVSS
chain 2: DIQMTQSPSSLSASVGDRVTITCQASQDIGNNLNWYQQKPGKAPKLLIYDASNLETGVPSRFSGSGSGTDFTLTISSLQPEDFATYYCQQYDNLPPITFGPGTKVDIK
B3: B028 (protein)
chain 1: EVQLVESGGGLIQPGGSLRLSCAASGFIVSRNYMSWVRQAPGKGLEWVSLLYAGGSTFYADSVKGRFTVSRDNSKNTLFLQMDSLRAEDTAVYYCARDLQDRGGLDYWGQGTLVTVS
chain 2: QAVVTQEPSLTVSPGGTVTLTCGFSTGAVTSGHYPYWFQQKAGQAPRTLIYDTINKHSWTPARFSASLLGGRAALTLSGAQPEDEADYYCLLSNIGARRVFGRGTKLTVL
B4: B015 (protein)
chain 1: QVQLVQSGAEVKKPGSSVKVSCKASGGTFSNNAISWVRQAPGQGLEWMGRIIPIPGITNYAQEFQGRVTITADKSTRTAYMEVSSLRSEDTAIYYCATDVDTALFADAFDIWGQGTMVIVSS
chain 2: DIQMTQSPSSLSASVGDRVTITCRASQGISNYLAWYQQKAGKVPKLLIYAASTLQSGVPSRFSGSGSGTDFTLTISSLQPEDVATYYCQKYNSVPFTFGPGTKVDIK
B5: B020 (protein)
chain 1: EVQLLESGGGLVQPGGSLRLSCAASGFTFKYFAMNWVRQAPGKGLEWVSVISGSGDNTYYADSVKGRFTISRDNSKNTLYVQMNSLRAEDTAVYYCAKDRYGGPRASTMDVWGQGTTVTV
chain 2: DIQMTQSPSSLSASVGDRVTITCQASQDITTYLNWYQQKPGNAPKLLVYDASNLETGVPSRFSGSGSGTDFTFTITSLQPEDFATYFCQQYGGHPLTFGGGTKVEIK
B6: B026 (protein)
chain 1: QVQLVESGGGVVQPGRSLRLSCAASGFTFNTFAMHWVRQAPGRGLEWVAAISYDGTIKTYADSVKGRFTISRDTSKSTLYLQVNSLRTEDTALYYCARDSDIVRTAQFDYWGQGTLVTVSS
chain 2: DIQMTQSPSSLSASVGDRVAITCRASQSISNYLNWYQKKPGKAPNLLIYTASSLQSGVPSRFSGSGSGTDFTLTISSLQPEDFATYYCQQSYTTPYTFGQGTQLENK
B7: B019 (protein)
chain 1: QVQLVESGGGVVQPGRSLRLSCAASGFTFNSYAMHWVRQAPGKGLEWVAVISHDGSIKYSADALKGRFTISRDNSKNTLYLQMKSLRTEDTAVYYCARDLDPRIQVVIPGYWGQGALVTVSS
chain 2: DIQMTQSPSSLSASVGDRVTITCRASQSISTYLNWYQQKPGKAPKLLIYTTSSLQSGVPSRFSGTGSGTDFTLTISSLQPEDFATYYCQQSYSAPYTFGQGTNLDIK

target: SARS-CoV-2 Wuhan-Hu-1 spike pseudovirus; assay: pseudovirus neutralization IC50; higher = weaker neutralization
Method: (§1)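 Single-round luciferase reporter pseudovirus mixed with antibody dilutions and put on 293T-ACE2 cells for 48 h; signal relative to no-antibody wells, four-parameter fit.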

| Binder | pseudovirus neutralization IC50 [ng/mL] |
| --- | --- |
| B1 | > 1000 |
| B2 | 11.1 |
| B3 | > 1000 |
| B4 | 11.5 |
| B5 | > 1000 |
| B6 | > 1000 |
| B7 | > 1000 |

target: SARS-CoV-2 Wuhan-Hu-1 spike pseudovirus; assay: pseudovirus neutralization IC90; higher = weaker neutralization
Method: as §1

| Binder | pseudovirus neutralization IC90 [ng/mL] |
| --- | --- |
| B1 | > 1000 |
| B2 | 198 |
| B3 | > 1000 |
| B4 | 60.2 |
| B5 | > 1000 |
| B6 | > 1000 |
| B7 | > 1000 |

target: SARS-CoV-2 Delta (B.1.617.2) spike RBD; assay: ELISA binding EC50; higher = weaker binding; ELISA of recombinant human antibody on coated antigen, from 10 µg/ml in fourfold dilutions; four-parameter fit.

| Binder | ELISA binding EC50 [ng/mL] |
| --- | --- |
| B1 | 41.2 |
| B2 | 471 |
| B3 | > 1000 |
| B4 | > 1000 |
| B5 | 41 |
| B6 | 451 |
| B7 | 24.5 |

target: SARS-CoV-2 Omicron BA.1 spike protein; assay: as above

| Binder | ELISA binding EC50 [ng/mL] |
| --- | --- |
| B1 | 66 |
| B2 | 2.96 |
| B3 | > 1000 |
| B4 | 30.1 |
| B5 | 58 |
| B6 | > 1000 |
| B7 | 14.9 |

target: SARS-CoV-2 Wuhan-Hu-1 spike receptor-binding domain; assay: as above

| Binder | ELISA binding EC50 [ng/mL] |
| --- | --- |
| B1 | 2.9 |
| B2 | 3.38 |
| B3 | 609 |
| B4 | 3.74 |
| B5 | 4.39 |
| B6 | 15.1 |
| B7 | 2.42 |
